Over roughly 110,000 compounds, “z-score” has its median near -0.1; the highest 2% begin near 2. Some of the results follow. Calls of active or inactive are those of the source.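 How the source made its calls: active means z-score in the third read window above 3 or below -3; inactive means the rest.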
The molecules below were run against Metabotropic glutamate receptor 8 (Rattus norvegicus) (UniProt P70579) (assay: rat mGluR8 modulators via GIRK flux, primary screen, cell-based, thallium flux, HTS (AID 488969)). Conditions: HEK293 rat mGluR8, GIRK (G protein-gated inwardly rectifying potassium channel) thallium flux, FluoZin2; at 10 µM; stronger effect = higher value; submaximal glutamate (EC20) added with thallium.
Chain of UniProt P70579 (P70579 whole entry, looked up): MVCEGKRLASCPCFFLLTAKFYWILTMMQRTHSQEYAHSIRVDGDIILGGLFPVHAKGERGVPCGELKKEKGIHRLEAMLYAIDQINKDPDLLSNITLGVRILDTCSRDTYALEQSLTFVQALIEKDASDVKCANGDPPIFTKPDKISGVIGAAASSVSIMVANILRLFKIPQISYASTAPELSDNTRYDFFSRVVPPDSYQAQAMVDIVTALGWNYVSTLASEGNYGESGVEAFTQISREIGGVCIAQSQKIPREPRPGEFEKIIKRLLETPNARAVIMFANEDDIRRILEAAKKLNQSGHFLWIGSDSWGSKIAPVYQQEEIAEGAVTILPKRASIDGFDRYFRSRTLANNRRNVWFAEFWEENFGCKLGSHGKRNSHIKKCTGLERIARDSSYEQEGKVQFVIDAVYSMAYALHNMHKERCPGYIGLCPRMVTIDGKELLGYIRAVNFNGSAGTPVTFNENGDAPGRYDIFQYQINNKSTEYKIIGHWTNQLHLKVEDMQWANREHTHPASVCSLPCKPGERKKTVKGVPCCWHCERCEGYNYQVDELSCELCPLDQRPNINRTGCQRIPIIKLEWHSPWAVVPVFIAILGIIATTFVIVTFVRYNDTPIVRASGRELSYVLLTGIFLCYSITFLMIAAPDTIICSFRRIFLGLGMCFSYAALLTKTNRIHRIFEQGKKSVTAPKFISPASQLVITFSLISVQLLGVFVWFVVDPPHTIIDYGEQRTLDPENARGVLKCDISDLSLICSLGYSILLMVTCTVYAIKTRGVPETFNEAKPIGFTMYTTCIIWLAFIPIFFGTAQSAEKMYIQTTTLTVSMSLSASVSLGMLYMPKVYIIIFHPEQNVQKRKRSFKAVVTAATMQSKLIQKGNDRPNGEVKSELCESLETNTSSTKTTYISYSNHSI

Row | SMILES | z-score
1 | COc1ccccc1C1Nc2cccc3cccc(c23)N1 | 0.44
2 | Cc1cccc(CN2C(=O)N/C(=C/c3cc(C)n(-c4ccccn4)c3C)C2=O)c1 | -0.27
3 | CC(C)(C)c1ccc(COC(=O)CNC(=O)CNC(=O)Cc2ccccc2)cc1 | -0.047
4 | O=C(NCC(=O)N1CCC(N2CCCCC2)CC1)C1CCCCC1 | 0.113
5 | O=C(NCc1ccccc1)C(c1ccc(O)cc1)N(C(=O)Cn1nnc(-c2cccs2)n1)c1ccc2c(c1)OCCO2 (stereo not given) | 0.054
6 | Cc1sc2nc(CN(Cc3cccs3)C(=O)NC3CCCCC3)[nH]c(=O)c2c1C | -0.862
7 | CN1CCc2c(c3c(n2C)CCN(C)C3c2ccc(F)cc2)C1c1ccc(F)cc1 (stereo not given) | 0.823
8 | Cc1cc(C(=O)NCCN2C(=O)S/C(=C\c3cccs3)C2=O)ccc1[N+](=O)[O-] | 0.0116
9 | O=c1cc(CSc2ccccn2)c2ccccc2[nH]1 | -0.0699
10 | CCn1nnnc1SCC(=O)N1CCOCC1 | 0.31
11 | CCOC(=O)C1CCN(C(=O)CCCOc2ccccc2)CC1 | -1.31
12 | CC1CCN(C(=O)CCNC(=O)Cn2cnc3sc4c(c3c2=O)CCCC4)CC1 | -0.208
13 | COC1Cc2ccccc2N(C(=O)N2CCN(CCO)CC2)c2ccccc21 (stereo not given) | -0.171
14 | COc1ccc(CC(=O)n2c(CC#N)nc3ccccc32)cc1OC | 0.0175
15 | CCCCn1c(C)cc(/C=C(\C#N)C(=O)O)c1C | -0.222
16 | Cc1cc(C(=O)CN2C(=O)c3ccccc3S2(=O)=O)c(C)n1-c1ccccc1 | 0.19
17 | O=C(CCCSc1nc2ccccc2s1)Nc1nccs1 | -0.79
18 | COc1ccc(NC(=O)C2OC3OC(C)(C)OC3C3OC(C)(C)OC23)cc1 (stereo not given) | -0.0361
19 | O=C(Nc1ccc(F)cc1)c1cn(-c2ccccc2)nc1-c1ccncc1 | -0.507
20 | Cn1c(SCC(=O)NC2CCCCC2)nnc1-c1cc2cc(Cl)ccc2o1 | -0.559
21 | O=C(Nc1ccccc1)c1ccc(CSc2ccccn2)cc1 | -0.0973
22 | Cc1occc1C(=O)NNC(=O)Nc1ccc(F)cc1F | -0.1

Row | SMILES | z-score
23 | CN(c1ccccc1)S(=O)(=O)c1ccc(C(=O)Nc2nccs2)cc1 | 0.374
24 | COc1ccc(N=Cc2ccc(CNS(=O)(=O)c3ccc(Cl)cc3)o2)cc1 | -0.295
25 | CC(C)C1Cc2c(C#N)c(N)n(C)c(=S)c2CO1 (stereo not given) | -1.22
26 | O=[N+]([O-])c1ccc(Cl)c(S(=O)(=O)NCC2CCCO2)c1 (stereo not given) | -0.238
27 | COc1ccc(OC)c(S(=O)(=O)N2CCc3ccccc32)c1 | 0.824
28 | CCOC(=O)C1CCN(C(=O)CSc2n[nH]c(=O)[nH]c2=O)CC1 | 0.161
29 | CCCCC(=O)NC(=S)NNC(=O)CC#N | -0.265
30 | Cc1ccc(NC(=O)c2ccc(OC(=O)C(C)Oc3ccc(Cl)cc3C)cc2)cc1 (stereo not given) | -0.296
31 | Cc1nc2c(C(=O)N3CCOCC3)cnn2c(C)c1Cc1ccc(Cl)cc1 | -0.24
32 | Cc1ccc(NC(=O)N(CCCN2CCOCC2)Cc2cccs2)cc1C | -0.357
33 | CCOC(=O)C1CCN(c2ncnc3c2cnn3-c2ccc(OC)cc2)CC1 | 0.645
34 | COc1ccc(-n2c(C)cc(/C=C(\C#N)C(=O)NCc3ccco3)c2C)cc1 | -0.393
35 | Cc1ccc(Sc2nc([N+](=O)[O-])nn2C)cc1 | -0.201
36 | Cc1ccccc1-c1ccc(Nc2ccc(C(=O)N3CCOCC3)cc2)nn1 | 0.503
37 | O=C(O)C1CSC2(c3ccc4c(c3)OCCO4)CCC(=O)N12 (stereo not given) | 0.952
38 | Cc1cccc(-c2c3c(=O)n(C)c(=O)n(C)c3cn2-c2ccc(O)cc2)c1 | -0.937
39 | Cn1c(COc2ccccc2)nnc1SCC(=O)Nc1ccc(N2CCOCC2)c(Cl)c1 | 0.244
40 | O=C(NCCc1ccccc1)C(=O)Nc1nccs1 | 0.151
41 | Cc1c(Cc2ccccc2)sc(/N=C/c2c(O)ccc3ccccc23)c1C(N)=O | 0.0117
42 | CC(=O)NC(NC(=S)Nc1ccc(N=Nc2ccccc2)cc1)C(Cl)(Cl)Cl (stereo not given) | 0.0756
43 | Cc1cccc(N2C(=O)CN(Cc3sccc3C)C2=S)c1 | -1.09
44 | COc1ccc(NC(=O)Nc2ccc(F)cc2F)c(C)c1 | -0.571

Row | SMILES | z-score
45 | Cc1cccc(NC(=O)C23CCC(C)(C2Br)C3(C)C)c1 (stereo not given) | 0.0793
46 | O=S(=O)(c1ccc(C2CCCCC2)cc1)N1CCN(c2ncccn2)CC1 | -0.202
47 | Cc1ccccc1NC(=O)c1c(Cl)nc(C)c(Cl)c1C | 0.803
48 | Cc1c(NC(=O)/C(=C/c2cccs2)c2cccs2)c(=O)n(-c2ccccc2)n1C | 0.0139
49 | Cc1nc2c3cc(F)ccc3n(Cc3ccc(F)cc3)c2s1 | -0.186
50 | CCOC(=O)C1=C(C)N[C@@]2(O)c3ccccc3C(=O)[C@@]12O | 0.275
51 | C=CCn1c(-c2ccccc2OC)n[nH]c1=S | -0.222
52 | CC(=O)Oc1ccc(C(=O)O)cc1OC(C)=O | -0.673
53 | COCCn1c(=NC(=O)/C=C/c2cccs2)sc2cc(NC(C)=O)ccc21 | -0.149
54 | COc1ccc(-n2c(-c3ccccc3)nc(=S)c3c2CCCC3)cc1 | 0.0477
55 | O=C(CC1NCCNC1=O)Nc1ccc2c(c1)OCCO2 (stereo not given) | 0.114
56 | COc1ccc(C(C)C)cc1S(=O)(=O)n1ccnc1C | -0.0108
57 | N#CC1=C(N2CCOCC2)/C(=C\c2ccccc2)CC1 | -0.118
58 | C/C(=N\Nc1nc2ccccc2[nH]1)c1ccc(Cl)s1 | -1.3
59 | OCCCN=c1cc(-c2ccccc2)oc2ccc(Cl)cc12 | active: 3.32
60 | CCOC(=O)C1CCN(C(=S)Nc2cc(C)ccc2C)CC1 | -0.0504
61 | C=C(Br)Cn1c(CC(C)C)nc2ccccc21 | -0.262
62 | COc1cc(NS(=O)(=O)c2ccc(N/C=C(\C#N)c3nc4cc(Cl)ccc4o3)cc2)nc(OC)n1 | -0.686
63 | COc1cccc(-n2nnc3c(=O)n(C/C=C/c4ccccc4)cnc32)c1 | -0.533
64 | CC1CCc2nn(CC(=O)Nc3ccc(F)cc3F)cc2C1 (stereo not given) | -1.66
65 | Cn1c(=O)c2c(nc(-n3ccnc3)n2C)n(C)c1=O | -0.0821
66 | CCOC(=O)CCC(NC(=O)c1cncc(O)c1)C(=O)OCC (stereo not given) | -0.145

Row | SMILES | z-score
67 | Cc1cc(C)n2nc(-c3ccsc3-n3c(C)ccc3C)cc2n1 | -0.445
68 | Cc1ccc(N2C(=O)CC2(C#N)c2ccc(OCc3ccccc3)cc2)cc1 (stereo not given) | 0.0189
69 | COC(=O)c1ccc(C)c(NC(=O)Cc2coc3cc(OC)ccc23)c1 | 0.022
70 | NC(=O)c1ccsc1NC(=O)C1CCCCC1 | -0.188
71 | CS(=O)(=O)CCC(C(=O)OCc1ccc(Cl)cc1)N1C(=O)c2ccccc2C1=O (stereo not given) | -0.0233
72 | CCc1nnc(NC(=O)CSc2nc(-c3ccc(OC)cc3)ns2)s1 | 0.586
73 | COc1ccccc1CCNCc1ccc(OC)c(OCc2ccccc2)c1 | 0.696
74 | Cc1occc1-c1nnc(SCC(=O)NC2CCCC2)n1-c1ccccc1 | -0.296
75 | Cc1cc(C)cc(NC(=O)CCc2nc3ccccc3[nH]2)c1 | -0.237
76 | O=c1c([N+](=O)[O-])c[nH]c2ccccc12 | -0.277
77 | N#Cc1c(NCc2ccccc2)ccnc1NCc1cccnc1 | -0.0947
78 | CCc1cc2c(=O)n(C(C)C(=O)OC3CCCCC3)cnc2s1 (stereo not given) | -0.0201
79 | Cc1csc(SCC(=O)NCCc2ccc(Cl)cc2)n1 | -0.378
80 | CCCCS(=O)(=O)NC1=NCN(C2CCN(Cc3ccccc3)CC2)CN1 | -0.312
81 | Cc1cccc(-c2nc3ccccc3c(=O)n2NC(=O)c2ccc([N+](=O)[O-])c(C)c2)c1 | -0.254
82 | Cc1ccc(N(C(=O)C2CCCC2)C2C=CS(=O)(=O)C2)cc1 (stereo not given) | 0.0902
83 | CCC(C)NC(=O)C1CCC(=O)N(c2ccc3c(c2)OCO3)C1c1ccc(OC)cc1 (stereo not given) | -1.82
84 | O=c1cc(N2CCN(Cc3ccccc3)CC2)[nH]c(=O)n1-c1ccc(Br)cc1 | -0.00548
85 | Cc1ccc(CN(c2ccc(C(=O)Nc3cccnc3)cc2)S(C)(=O)=O)cc1 | -0.182
86 | CSCCC(NS(=O)(=O)c1ccc2c(c1)OCCO2)C(=O)NCCc1ccccn1 (stereo not given) | -0.0252
87 | CC(C)(C)OC(=O)C1C(=O)CC(C)(O)C(C(=O)OC(C)(C)C)C1c1ccco1 (stereo not given) | -0.19
88 | CC(=O)Nc1nn(C)c2nc3cc(C)ccc3cc12 | -0.147

Row | SMILES | z-score
89 | O=S1(=O)NC(=NCc2ccco2)c2ccccc21 | 1.85
90 | Nc1nc(SCc2c(F)cccc2Cl)[nH]c(=O)c1-c1ccccc1 | -0.234
91 | Cc1ccc(NC(=O)CSc2nc(N)c3c4c(sc3n2)CSC(C)(C)C4)cc1 | -0.299
92 | O=c1c2c(-c3ccco3)csc2nc(SCc2cn3cccnc3n2)n1-c1ccccc1 | -0.753
93 | Cc1ccc(C2(O)CN(c3ccccc3)C3=[N+]2CCS3)cc1 (stereo not given) | -0.512
94 | Cc1cc(C(F)(F)F)nn1CC(=O)NNC(=S)NCC(C)C | 0.275
95 | O=C(NCCc1ccccc1)c1cccs1 | -0.239
96 | CCCn1nc(C(=O)NC2CCCc3ccccc32)c2ccccc2c1=O (stereo not given) | -1.21
97 | COc1ccc(-c2nnc(CSc3nnc(-c4ccncc4)n3C3CCCCC3)o2)cc1OC | 0.178
98 | CC(C)c1nnc(NC(=O)c2cnccn2)s1 | -0.169
99 | O=C1CC(Nc2ccccc2)C(=O)N1Cc1ccccc1 (stereo not given) | 0.0339
100 | O=[N+]([O-])c1cccc(/C=N/Nc2nc(NCc3ccccc3)nc(N3CCOCC3)n2)c1 | -0.129
101 | CC(C)(C)NC(=O)CCN(/N=C/c1ccc([N+](=O)[O-])o1)C1=NS(=O)(=O)c2ccccc21 | -0.0846
102 | CCN(c1ccc(NC(=O)CN2C(=O)NC3(CCOc4ccccc43)C2=O)cc1)C(C)C (stereo not given) | -0.636
103 | Cc1ccc(NC(=O)CSc2nc3c(cc2C#N)C(=O)CCC3)cc1S(=O)(=O)N(C)C | -0.571
104 | COc1ccc2c(c1)-c1ccccc1S(=O)(=O)N2C | -0.124
105 | CN(CP(=O)(O)CN(C)S(C)(=O)=O)S(C)(=O)=O | 0.00353
106 | COc1cc(C(=O)Nc2ccc(Br)cc2C(=O)c2cc(OC)c(OC)c(OC)c2)cc(OC)c1OC | -1.48
107 | COc1cc(C(=O)N2CCC(NC(=O)C(Cc3ccc(C(C)C)cc3)NC(C)=O)CC2)cc(OC)c1OC (stereo not given) | -0.0871
108 | CC(C)NC(=O)CCS(=O)(=O)c1ccc(Br)s1 | -0.895
109 | CCCCn1c(CNC(=O)C23CC4CC(CC(C4)C2)C3)nnc1SC(C)CC (stereo not given) | -0.667
110 | Cc1c(-c2ccc(Cl)cc2)oc(=O)c2c(N)n(-c3ccccc3)nc12 | -0.106
